Sequences with one replicate were seen in a single cluster, so their values are uncertain.
System: ATP
Test: switch fluorescence ratio, 500 uM ATP over buffer (Cy3 cluster intensity, sum of 5 cycles each) (fold (ratio)); higher = stronger signal-on switching upon ATP binding; sequences stand for … in TCGTCGGCAGCGTCAGATGTGTATAAGAGACAGTTTTTTTTTTTTTTTTTTTTTTTTT…TC
Details: aptamer strand: ATP DNA aptamer (quencher-CACCTGGGGGAGTATTGCGGAGGAAGG + anchor), 100 nM annealed; ATP concentration: 500 uM; one replicate
Procedure, shortened: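 Cy3-labelled switching-strand clusters on a modified Illumina MiSeq flow-cell were annealed to 100 nM quencher-labelled ATP aptamer and imaged first in selection buffer, then after 15 min with 500 uM ATP at 22 °C. NaOH stripping and re-annealing separated each of five buffer/ATP cycles, and clusters outside 100-1000 RFU were excluded. The fluorescence ratio sums target-cycle Cy3 intensity over buffer-cycle Cy3 intensity per cluster and averages it per switch-domain sequence.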
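Also: ATP exposure 15 min at 22 °C before imaging.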

| Sequence | switch fluorescence ratio |
| --- | --- |
| AGAGAATGC | 0.976 |
| ACGGATTCGA | 0.982 |
| ACACATCGAT | 0.98 |
| AAAGGGACGA | 1.06 |
| CTCTTGTTTG | 1.03 |
| ATCAGGAGA | 1 |
| AGCCGTGGGG | 0.983 |
| GACCGCCGTG | 0.957 |
| TAGGGATACG | 1.02 |
| ATACCGAATT | 1.01 |
| GGAAGGAAGC | 0.992 |
| GTGAGGATAC | 1.02 |
| GCGTGTAAAT | 1.04 |
| TCCGTAATCG | 1.76 |
| GTTAGTTGAG | 0.972 |
| CTAACATGCT | 0.926 |
| CGTAATACGT | 2.98 |
| GTTAATCGCT | 1.04 |
| CCACCTGTTG | 1.17 |
| GTGTTTCCTC | 1.06 |
| TACCACTCTG | 1.02 |
| GGTCATCTAC | 0.987 |
| CGAGCACGTC | 1.1 |
| TGGTGCCGAT | 0.99 |
| CGCATTGTGT | 1.1 |
| GCTGTATCGC | 0.921 |

| Sequence | switch fluorescence ratio |
| --- | --- |
| TAGAGTGGTC | 1 |
| GTCTGTAAAA | 0.993 |
| AGGGGGCCGA | 1.03 |
| CCTTGGTTTT | 1.01 |
| GTGTAGGC | 1.02 |
| CAAAGCGCCC | 1.14 |
| GCTAGGATCA | 0.987 |
| CTTGAATTGC | 0.978 |
| GGCTTGGGCC | 0.97 |
| ATGTGCCGTG | 1.03 |
| AGACGGTCCT | 1 |
| CGGGGTCCAG | 0.983 |
| TCCAAGTGAA | 1.05 |
| TCAGTTGGAC | 1.13 |
| GGTAGAACAG | 0.98 |
| AGTGTACAAA | 1.09 |
| ATCAGCATCG | 0.98 |
| TTTGGGCGTG | 0.99 |
| TGAGAGATCC | 1.01 |
| AACTAATAT | 0.981 |
| ATATTGGAGC | 0.99 |
| AGACGTTAAA | 1.04 |
| GGATAATGAT | 0.986 |
| GGCACATGGT | 0.984 |
| TACCTGCCAT | 1.08 |
| TGTGCCATAT | 0.985 |

| Sequence | switch fluorescence ratio |
| --- | --- |
| ACCCGAGGAT | 1.04 |
| TGACCCCGTG | 1.04 |
| ACGGACGGAT | 1.08 |
| CGTATACGTT | 0.982 |
| GTTCTCCTTT | 1.01 |
| GGGGGCGTG | 1.01 |
| GGAACTAAAT | 1.01 |
| GATGAAGGAA | 1.01 |
| GATTCGGATA | 0.996 |
| CCCCTTAAAG | 1.02 |
| ACAACTGTA | 1.17 |
| TAGAGCTCAC | 1.02 |
| CTGAGGCAG | 1.61 |
| CTATCAGTAG | 0.986 |
| AAAAATTCT | 0.987 |
| TCTCGTCAAT | 3.24 |
| CTCCTGACAT | 1.24 |
| AAGGGACGCA | 1.18 |
| AATTGTTGCA | 1.01 |
| GATAACGCCA | 1.3 |
| TCCATTGGAC | 1.02 |
| CCTTGGCACG | 1.57 |
| TCCGGAGGT | 1.08 |
| AGTTCTAAAT | 1.02 |
| TCGTTAGGTC | 0.955 |
| ACAAAGAGTA | 1.01 |

| Sequence | switch fluorescence ratio |
| --- | --- |
| GTCGAAACAC | 1.07 |
| GGGTGGTATA | 0.984 |
| TTTGGACAT | 0.993 |
| GGACATTTGA | 1.02 |
| AGGAACACAA | 1.06 |
| TGACTGATC | 1.05 |
| ATGAGTGATT | 1.01 |
| GAGGAACGG | 0.981 |
| CTACGTTAT | 1.44 |
| AAGCGGCTCC | 1.31 |
| CCTGAGCGAG | 1.64 |
| TAGTACAGC | 0.987 |
| TTTTGCTTCA | 1.03 |
| GGGAAACTCA | 1.29 |
| GAATGTTCCC | 1.01 |
| CATAAATGAG | 0.993 |
| AGGATGGTG | 0.955 |
| TAAATTCTTA | 0.967 |
| CGCCAGTTGT | 1.13 |
| TGGCTCAACG | 0.998 |
| GCCTATGATA | 0.989 |
| ACTGCCCCGG | 4.26 |
| CGGTGCAGAG | 0.979 |
| CCTTGACCGC | 2.3 |
| ACGCATTTGA | 1.13 |
| TGGTAGTGT | 0.976 |

| Sequence | switch fluorescence ratio |
| --- | --- |
| ATGAGGAGC | 0.919 |
| CAGTAGTAAT | 2.28 |
| TGTTGTTATG | 0.968 |
| CTCATGGGAA | 0.986 |
| TGACCCGATT | 0.955 |
| AACCAAATGG | 0.986 |
| TAGCAGGCCA | 1.03 |
| GATGCGCTG | 1.05 |
| TCTCTTATCC | 1.04 |
| ACAATCATCT | 1.01 |
| ATGGGGTGAG | 0.986 |
| ATTAGGGTAG | 0.967 |
| GGACAATTTA | 1.02 |
| CCACATTGAC | 1.37 |
| CGAGTGTGTC | 1.06 |
| CATAAGCCCA | 0.994 |
| TGCGAGCAGG | 1.02 |
| ATCAGTCTTA | 0.982 |
| AAAATGCAAT | 1.19 |
| AAGATGCTGG | 1.04 |
| AGTCTTATCC | 0.996 |
| TCGGTGATAA | 1.06 |
| ATTCTATCAT | 0.98 |
| CTTCGTGTCC | 1.11 |
| GTAATTGAAA | 0.988 |
| TCGGGCCGCG | 0.985 |

| Sequence | switch fluorescence ratio |
| --- | --- |
| TATACGTGGA | 1.02 |
| ACGTTACCTA | 1.45 |
| GTAAGGAATT | 0.94 |
| GGTCCCTACG | 1.08 |
| CAGTTATAGC | 1.05 |
| ATTGTATGAG | 0.997 |
| GTTGTAATAC | 3.33 |
| GGGGAAACG | 1 |
| TAAGGTCGGA | 1.04 |
| GCATGGTTG | 1.03 |
| TATTGCTGTT | 0.999 |
| ACCACTTAAC | 1.11 |
| TAATCTAAAC | 0.998 |
| CATTAGAGCT | 0.991 |
| AGCATTAATA | 1.01 |
| TTAACCTGCA | 1.59 |
| GGGTTCAACT | 0.999 |
| AAACTTGC | 1.12 |
| ATTTTTACAT | 1 |
| TCGGTAGTGT | 0.95 |
| CTGAACTGGT | 0.991 |
| CTAGTCTCTG | 0.993 |
| GGGAGCGAGT | 0.962 |
| GGATGGTCAT | 1.02 |
| CATTCCGTAT | 1.09 |
| GTATTGGAGG | 0.979 |

| Sequence | switch fluorescence ratio |
| --- | --- |
| TCGATACTTG | 1.02 |
| CTGAGTAAGT | 1 |
| TCCACGCATT | 4.77 |
| TATAATAACT | 0.986 |
| CAGTATAGGA | 1.01 |
| CAGGTACTCT | 1.07 |
| TTATATGTTT | 0.986 |
| CCTTTTGATT | 1.03 |
| ACGAGTCTTT | 0.983 |
| CGAAGAATGT | 1.02 |
| CTCATGTCGC | 0.96 |
| AACGGATACT | 1.19 |
| TAGGTGTAGC | 1.11 |
| TAGTATCAAG | 0.963 |
| TTTGTACGAC | 1.1 |
| TCACAGTATC | 1.06 |
| TGGCCGCGGG | 1.16 |
| GTTCATTGGT | 1.04 |
| CTTTCTGTTA | 0.98 |
| GATTAACTCG | 1.01 |
| TGGCCTTTGC | 1.02 |
| GGGTGTGGTG | 0.886 |
| TTCGACTGGG | 1.01 |
| TGAGGATTGT | 0.99 |
| TTCGCCCCGA | 1.01 |
| ATACCCGTGA | 1.04 |

| Sequence | switch fluorescence ratio |
| --- | --- |
| AAGAGCTGTG | 1.01 |
| AAAGAGGATG | 1 |
| CTCTTTTGCA | 1.09 |
| TGTAATGTCC | 1.06 |
| GGACCGGGCT | 0.991 |
| TCGTTTTAAT | 0.978 |
| CCATTTCTCA | 0.956 |
| GGCGCTAAGA | 0.987 |
| TTTGAGCAAT | 4.74 |
| ATCTCAGGTA | 1.01 |
| ATTTCAGTGG | 0.973 |
| CGGTCATAGC | 1.05 |
| CGTGTGGCAA | 1.15 |
| TGACTCTTAA | 1.03 |
| GTTTAACCCT | 1.05 |
| TACACACTGA | 1.39 |
| CGTGGTCAGT | 1.05 |
| GTTCAATCAA | 0.986 |
| TAAGGTGCGG | 1.01 |
